Test results as given in the supplement of paper PMC7266297.
Where a name gives a salt, the structure may show the parent alone. The list shows a part of the results. Most values come without repeats; read them as rough.

What was measured:
KB-3-1 = test: growth inhibition relative to DMSO control (SRB); cervical cancer cells: KB-3-1 is the parent and KB-V1 overexpresses MDR1; SRB is the sulforhodamine B stain; higher = more growth inhibition; details: 1 µM; 72 h
KB-V1 = test: as above; details: 1 µM; 72 h
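Also: Read-out is SRB optical density at 490 nm, with the control being wells given 0.5% DMSO vehicle, and compound added one day after cells were plated.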

Row | SMILES | growth inhibition (KB-3-1) | growth inhibition (KB-V1)
1 | CN1CCC(NC(=O)c2cc(-c3c(O)cc(O)cc3Oc3ccc([N+](=O)[O-])cc3)on2)CC1 | 64% | 9.89%
2 | O=c1oc2cc(O)ccc2s1 [Tioxolone] | 30.4% | 11.7%
3 | Cc1ccc(Nc2nccc(N(C)c3ccc4c(C)n(C)nc4c3)n2)cc1S(N)(=O)=O [Pazopanib] | < 0% | 5.45%
4 | O=C(O)/C=C/c1ccc(Cn2ccnc2)cc1 [Ozagrel] | 26.9% | 6.38%
5 | CCOc1nc2cccc(C(=O)O)c2n1Cc1ccc(-c2ccccc2-c2nnn[nH]2)cc1 [Candesartan] | 27.7% | 9.13%
6 | Fc1cc(-c2cccc3ncc(-c4cnn(C5CCNCC5)c4)nc23)cc(F)c1CN1CCOCC1 | < 0% | 4.69%
7 | Cn1c(=O)c(F)c(Nc2ccc(I)cc2F)c2c(=O)n(C[C@@H](O)CO)cnc21 | 34% | 3.73%
8 | CN(C)CCN(Cc1ccccc1)c1ccccn1 [Tripelennamine HCl] | 5.06% | < 0%
9 | Cc1ccc(NC(=O)c2ccc(CN3CCN(C)CC3)cc2)cc1Nc1nccc(-c2cccnc2)n1 [Imatinib Mesylate (STI571)] | 14.9% | 13.8%
10 | Cc1[nH]c(/C=C2\C(=O)Nc3ccc(S(=O)(=O)N(C)c4cccc(Cl)c4)cc32)c(C)c1C(=O)N1CCN(C)CC1 | 26.3% | 28%
11 | Nc1nnc(-c2cccc(Cl)c2Cl)c(N)n1 [Lamotrigine] | < 0% | 8.71%
12 | CC(C)(C)c1ccc(C(=O)CCCN2CCC(OC(c3ccccc3)c3ccccc3)CC2)cc1 [Ebastine] | 33.2% | 16.9%
13 | Cc1c(-c2ccccc2)oc2c(C(=O)OCCN3CCCCC3)cccc2c1=O [Flavoxate HCl] | < 0% | < 0%
14 | O=C(NCCCNc1nc(Nc2cccc(NC(=O)N3CCCC3)c2)ncc1I)c1cccs1 | 83.6% | 60.4%
15 | CC(C)(C)NC[C@H](O)COc1nsnc1N1CCOCC1 [Timolol Maleate] | 32.8% | 22.9%
16 | COc1cc2ncnc(Nc3ccc(F)c(Cl)c3)c2cc1OCCCN1CCOCC1 [Gefitinib (ZD1839)] | 26.2% | 18.2%
17 | CCC(CC)(NC(=O)C(C)C)C(=O)N[C@@H](CCCN=C(N)N)C(=O)NC1(C(=O)NC(c2ccc(F)cc2)c2ccc(F)cc2)CCCC1 | < 0% | < 0%

Row | SMILES | growth inhibition (KB-3-1) | growth inhibition (KB-V1)
18 | CC(C)n1c(/C=C/C(O)CC(O)CC(=O)O)c(-c2ccc(F)cc2)c2ccccc21 (stereo unspecified) [Fluvastatin Sodium] | 51.5% | 22.3%
19 | O=c1cc(N2CCOCC2)oc2c1ccc1ccccc12 | 13.5% | < 0%
20 | Cc1cc(C)c(/C=C2\C(=O)Nc3ccccc32)[nH]1 [Semaxanib (SU5416)] | 28% | 13.4%
21 | C=CC(=O)Nc1cccc(Nc2nc(Nc3ccc(OCCOC)cc3)ncc2F)c1 | 26.1% | 24%
22 | CCN(CC)C(=O)/C(C#N)=C/c1cc(O)c(O)c([N+](=O)[O-])c1 [Entacapone] | < 0% | 9.04%
23 | O=C(NOCC(O)CO)c1cc(Br)c(F)c(F)c1Nc1ccc(I)cc1F (stereo unspecified) | 40.9% | 20.8%
24 | CC(C)n1nc(-c2cc3cc(O)ccc3[nH]2)c2c(N)ncnc21 | 12.8% | 14%
25 | CN1CCC[C@@H]1CCO[C@](C)(c1ccccc1)c1ccc(Cl)cc1 [Clemastine Fumarate] | 47.3% | 20.6%
26 | NC(=O)c1ccc(N(C(N)=O)c2c(F)cccc2F)nc1-c1ccc(F)cc1F | 18.3% | < 0%
27 | CN1CC(=O)N2[C@H](c3ccc4c(c3)OCO4)c3[nH]c4ccccc4c3C[C@@H]2C1=O [Tadalafil] | 35.1% | 9.61%
28 | CC[C@@]1(O)C(=O)OCc2c1cc1n(c2=O)Cc2cc3c(CN(C)C)c(O)ccc3nc2-1 [Topotecan HCl] | 67.7% | 54.1%
29 | O=C(O)COCCN1CCN(C(c2ccccc2)c2ccc(Cl)cc2)CC1 (stereo unspecified) [Cetirizine DiHCl] | 14.1% | 39.9%
30 | COCCCOc1cc(C[C@@H](C[C@H](N)[C@@H](O)C[C@H](C(=O)NCC(C)(C)C(N)=O)C(C)C)C(C)C)ccc1OC [Aliskiren Hemifumarate] | < 0% | 51.4%
31 | COc1ccc(CNC(=O)Nc2ncc([N+](=O)[O-])s2)cc1 | 47.2% | 14.2%
32 | CN(C)c1ccc(-c2nc3ncc(Cl)c(N4CCN(CC(=O)Nc5nccs5)CC4)c3[nH]2)cc1 | 88.3% | 87.4%
33 | COc1c(C)c(C(=O)c2ccc(N)c(C(=O)O)c2)n2ccccc12 | < 0% | < 0%
